Data reported in publication PMC4336329 (PLoS ONE, 2015).
In all, about 310,000 compounds went through this assay and about 14,000 (4.5%) showed an effect of 50% or more. Effects have a minus sign here. This is one part of the list.

biological target: human ether-à-go-go-related gene (hERG) potassium channel (human, UniProt Q12809); assay: primary screen, population patch clamp on CHO cells stably expressing hERG
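Also: peak tail current of the secondary pulse compared with the same well before compound.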

Sequence of human ether-à-go-go-related gene (hERG) potassium channel (Q12809 whole entry, looked up): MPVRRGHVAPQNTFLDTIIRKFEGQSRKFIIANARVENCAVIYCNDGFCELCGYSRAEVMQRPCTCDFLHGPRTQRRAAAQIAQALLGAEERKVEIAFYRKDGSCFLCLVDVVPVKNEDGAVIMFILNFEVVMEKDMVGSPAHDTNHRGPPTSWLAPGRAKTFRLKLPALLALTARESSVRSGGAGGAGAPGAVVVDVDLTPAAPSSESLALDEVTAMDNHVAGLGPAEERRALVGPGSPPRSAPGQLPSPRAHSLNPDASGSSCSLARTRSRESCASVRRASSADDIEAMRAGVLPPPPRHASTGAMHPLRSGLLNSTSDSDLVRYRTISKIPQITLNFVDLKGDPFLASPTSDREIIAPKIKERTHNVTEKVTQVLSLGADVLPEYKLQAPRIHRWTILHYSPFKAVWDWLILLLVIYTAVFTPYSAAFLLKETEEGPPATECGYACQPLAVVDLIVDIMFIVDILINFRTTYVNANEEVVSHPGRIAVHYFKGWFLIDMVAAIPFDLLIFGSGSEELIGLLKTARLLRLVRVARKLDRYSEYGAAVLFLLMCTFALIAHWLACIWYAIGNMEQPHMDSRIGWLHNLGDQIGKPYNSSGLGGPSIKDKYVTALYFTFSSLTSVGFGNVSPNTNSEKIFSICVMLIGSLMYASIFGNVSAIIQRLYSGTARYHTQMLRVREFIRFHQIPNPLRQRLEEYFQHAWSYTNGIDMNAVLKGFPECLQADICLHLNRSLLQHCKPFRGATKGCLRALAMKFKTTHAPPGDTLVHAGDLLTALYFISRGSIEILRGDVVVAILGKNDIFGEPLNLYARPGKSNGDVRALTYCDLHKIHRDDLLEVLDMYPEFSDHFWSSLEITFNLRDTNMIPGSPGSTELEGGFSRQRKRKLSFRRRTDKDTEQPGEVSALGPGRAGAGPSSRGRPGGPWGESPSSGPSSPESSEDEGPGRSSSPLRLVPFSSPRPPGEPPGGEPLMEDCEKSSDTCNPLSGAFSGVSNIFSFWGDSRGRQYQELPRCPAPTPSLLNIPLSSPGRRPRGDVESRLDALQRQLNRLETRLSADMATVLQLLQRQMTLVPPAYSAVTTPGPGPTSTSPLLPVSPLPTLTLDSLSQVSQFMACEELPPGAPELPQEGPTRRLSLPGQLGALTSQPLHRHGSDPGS

Row | Structure (SMILES) | hERG current change (%, negative = inhibition) at 10uM
1 | CC1CCC(C(C)C)C(OCC(O)CNC(C)c2ccccc2)C1.Cl (centres unmarked) | 0.875%
2 | CCOC(=O)c1sc(N)c(C#N)c1COC(=O)C1=COCCO1 | 3.69%
3 | CC(=O)N1CCN(CC(=O)Nc2cc(S(=O)(=O)N3CCOCC3)ccc2C)CC1 | 10.7%
4 | CCOC(=O)c1n[nH]n2c1nc(=S)c1ccccc12 | 16.1%
5 | COc1ccc(NC(=S)/N=C(\N)Nc2nc(C)c3ccc(C)cc3n2)cc1 | 12.5%
6 | O=C(O)C1CC=CCC1C(=O)Nc1ccc(N2CCN(Cc3ccccc3)CC2)cc1 (centres unmarked) | 7.25%
7 | COc1ccc(OC)c(NC(=O)c2cc(-c3cc(C)c(C)cc3O)n[nH]2)c1 | 28.7%
8 | O=C1CCC(C(=O)N2CCC(CO)CC2)CN1Cc1ccc(Cl)cc1 (centres unmarked) | 13.5%
9 | COc1cc(NC(=O)CCNC(=O)Cn2cnc3sc4c(c3c2=O)CCCC4)cc(OC)c1OC | 5.48%
10 | CN(C)c1ccc(-c2nc3ccccc3c(=O)[nH]2)cc1 | 8.36%
11 | CN1CCN(CCCNC(=O)c2ccc(CSCc3cccc(Cl)c3)o2)CC1 | -40.2%
12 | COc1cc(/C=N/Nc2ccnc(=O)[nH]2)ccc1O | 9.52%
13 | COc1ccc(C(=O)NCC(C)NC(=O)c2ccc(OC)cc2)cc1 (centres unmarked) | 10.5%
14 | CN(Cc1ccco1)C(=O)c1ccc(N2CCCC2=O)cc1 | 14.3%
15 | CCOCCn1c(COc2ccccc2)nc2ccccc21 | -33.6%
16 | COc1ccc(Nc2cc(C(=O)N3CCc4ccccc4C3)c3ccccc3n2)c(OC)c1 | 6.56%
17 | COC(=O)c1ccccc1NC(=O)CSc1n[nH]c(-c2cccnc2)n1 | 4.96%
18 | C=CCn1c(CNc2ccc(C)cc2)nnc1SCC(=O)N/N=C/c1ccc(O)cc1O | -3.99%
19 | COc1cc(OCC(=O)NC(C)C)cc2c1C(=O)O[C@@H](C)CCCC(=O)CCCCC2 | 6.06%

Row | Structure (SMILES) | hERG current change (%, negative = inhibition) at 10uM
20 | O=C(NNC1CC(c2ccccc2)=NN1C(=O)c1ccccc1)c1ccccc1 (centres unmarked) | -12%
21 | C=CCN(c1ccccc1)S(=O)(=O)c1cc(C(=O)NC2=NCCS2)ccc1Cl | 63.3%
22 | CC1CCC(C(C)C)C(OP(N)(=O)c2ccccc2)C1 (centres unmarked) | -4.93%
23 | O=C(N/N=C/c1cc(Br)c(Br)o1)c1ccc2c(c1)OCCO2 | 2.08%
24 | Cc1[nH]n(C(N)=S)c(=O)c1N=Nc1cccc(C(F)(F)F)c1 | 24.4%
25 | O=C(CC12CC3CC(CC(C3)C1)C2)NCC(=O)OCc1cc(=O)oc2ccc3ccccc3c12 | 18.7%
26 | CC(C)(C)c1ccc(OCCCC(=O)N2CCOCC2)cc1 | -4.06%
27 | COc1ccc(NC(=O)CSc2nnc(Cc3cccn3C)n2CCc2ccccc2)cc1OC | -1.16%
28 | CC(C)CCNC(=O)c1ccc(CSCc2cccc(F)c2)o1 | -25.9%
29 | CCn1c(SCC(=O)OC)nc2sc3c(c2c1=O)CC(C)(C)OC3 | 1.06%
30 | O=C(C1CC1)N1CCN(c2ccc([N+](=O)[O-])cc2-n2cccc2)CC1 | -31%
31 | COc1ccccc1N(CC(=O)NC(C)(C)C)C(=O)Cn1nnc(-c2ccc(C)o2)n1 | 1.37%
32 | CN(Cc1ccc(Cl)cc1Cl)C(=O)CN1C(=O)NC2(CCCC2)C1=O | -26.6%
33 | COc1ccc(NC(=S)NC2CCS(=O)(=O)C2)cc1 (centres unmarked) | -0.0205%
34 | Cc1ccc(-c2nc(SCC(=O)N(C)C3CCS(=O)(=O)C3)[nH]c2-c2ccc(C)cc2)cc1 (centres unmarked) | -41.3%
35 | Cn1c(=O)c2c(O)cc(=O)[nH]c2n(-c2ccccc2)c1=O | 11.3%
36 | NS(=O)(=O)c1ccc(CNC(=O)/C=C/c2ccc(S(=O)(=O)N3CCOCC3)cc2)cc1 | 29.5%
37 | C/C=C1/CC(C)C(C)(O)C(=O)OCC2CCN3CCC(OC1=O)C23 (centres unmarked) | 17.4%
38 | CS(=O)(=O)N(CC(=O)Nc1ccccc1C(=O)N1CCOCC1)c1cccc([N+](=O)[O-])c1 | -18.5%

Row | Structure (SMILES) | hERG current change (%, negative = inhibition) at 10uM
39 | O=C(O)CC(SCC(=O)Nc1ccc(Cl)c(S(=O)(=O)N2CCOCC2)c1)C(=O)O (centres unmarked) | -6.49%
40 | Cc1cc(=O)n2nc(N3CCC(C(=O)NCCc4ccccc4)CC3)sc2n1 | -10.1%
41 | Cc1ccccc1N1CCN(CC(=O)Nc2nccs2)CC1 | -2.21%
42 | Cc1ccnc(N(C(=O)c2cccs2)C(=O)c2cccs2)c1 | 13%
43 | COC(=O)NCCOc1cc(C)ccc1C | -7.49%
44 | CC1(C)C(=O)OC(c2cc(Br)ccc2O)C(C)(C)C1=O (centres unmarked) | -0.382%
45 | CCCn1nnnc1NC(=O)COc1ccc(CC)cc1 | -3.02%
46 | CC(C)(Cc1ccc(O)cc1)NC(=O)c1ccccc1 | -2.85%
47 | Cc1ncc(CN2CCCC(C(=O)Nc3ccc(-n4ccnc4C)cc3)C2)cn1 (centres unmarked) | 12.8%
48 | C=CCOc1ccc(/C=C/C(=O)OCC(=O)NCc2cccc(OC)c2)cc1 | 3.49%
49 | Cc1ccc(-n2nnnc2C(Cl)(Cl)c2nnnn2-c2ccc(C)cc2)cc1 | -10.4%
50 | CCOC(=O)Cn1c(=N)n(CCOc2ccc3ccccc3c2)c2ccccc21.Cl | -75.3%
51 | CCC(C)N(CC(=O)NCc1ccc(OC)cc1)C(=O)c1csnn1 (centres unmarked) | -18.3%
52 | Cc1ccc(C2=NCC(=O)Nc3ccc(Br)cc32)cc1 | -17.1%
53 | COc1cc(CCC(C)=O)ccc1OC(=O)c1c(F)cccc1Cl | -24.7%
54 | CS(=O)(=O)N(CC(=O)N1CCc2ccccc2C1)c1cccc(Br)c1 | -37.3%
55 | Cc1c(NC(=O)c2cc(=O)[nH]c3ccccc23)c(=O)n(-c2ccccc2)n1C | 10.5%
56 | CCOC(=O)c1ccc(CNCc2ccccc2)cc1 | -4.92%
